Measurements published in the BET-seq Pho4 binding data (Le et al. 2018).
This is one part of the list. These are noisy estimates, calculated here from bound and input reads.

The sequences below were run against T1, Pho4 (S. cerevisiae) (UniProt P07270) (assay: relative binding free energy (BET-seq); higher = weaker binding). Conditions: reference: library average.
T1 sequence: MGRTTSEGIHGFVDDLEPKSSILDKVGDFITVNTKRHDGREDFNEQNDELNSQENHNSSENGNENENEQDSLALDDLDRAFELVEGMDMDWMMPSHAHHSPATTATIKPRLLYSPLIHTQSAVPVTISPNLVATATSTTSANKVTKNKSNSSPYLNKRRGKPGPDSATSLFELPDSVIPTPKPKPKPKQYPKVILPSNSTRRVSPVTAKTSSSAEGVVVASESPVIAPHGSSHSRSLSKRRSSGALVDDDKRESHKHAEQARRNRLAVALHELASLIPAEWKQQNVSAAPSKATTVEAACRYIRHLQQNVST

| Sequence | relative binding free energy |
| --- | --- |
| GTGGACACGTGTGACT | 0.06 kcal/mol |
| GAATTCACGTGTTGTA | 0.34 kcal/mol |
| CGTTCCACGTGTGGGT | 0.08 kcal/mol |
| TATGTCACGTGGGCTC | -0.1 kcal/mol |
| GAAAACACGTGGGAGG | 0.12 kcal/mol |
| TATAACACGTGGAATT | 0.1 kcal/mol |
| CTATACACGTGGTTTT | 0.03 kcal/mol |
| TTAGTCACGTGGTACT | 0.03 kcal/mol |
| ATCGTCACGTGAGAGG | 0.3 kcal/mol |
| ACGTGCACGTGATTTT | 0.04 kcal/mol |
| ATGGACACGTGCCGGG | 0.02 kcal/mol |
| GCGGGCACGTGTTGGA | -0.13 kcal/mol |
| GGGTCCACGTGTCTGT | 0.14 kcal/mol |
| TGACACACGTGTGGGC | 0.09 kcal/mol |
| CTTGTCACGTGGGAGC | 0.04 kcal/mol |
| GTCATCACGTGGGGGC | 0.12 kcal/mol |
| CGTAGCACGTGGTGTC | -0.12 kcal/mol |
| TCGGACACGTGTTATG | 0.13 kcal/mol |
| TCTTGCACGTGGAGTG | -0.12 kcal/mol |
| CCGGGCACGTGGGCAG | -0.2 kcal/mol |
| GGTGGCACGTGAGCAT | 0.16 kcal/mol |
| GCGTTCACGTGTGGTG | 0.34 kcal/mol |
| TAGCGCACGTGGGATT | -0.24 kcal/mol |

| Sequence | relative binding free energy |
| --- | --- |
| ATATGCACGTGTGGCA | -0.07 kcal/mol |
| CTTTTCACGTGATCTG | 0.34 kcal/mol |
| AGTTGCACGTGTCGGC | 0.1 kcal/mol |
| ATCGTCACGTGGAAGT | 0.09 kcal/mol |
| GAGTTCACGTGTAGAG | 0.31 kcal/mol |
| GCTGGCACGTGGGGCC | -0.02 kcal/mol |
| TAAGTCACGTGTAGGC | 0.09 kcal/mol |
| CGCGTCACGTGATGTG | 0.13 kcal/mol |
| CTATACACGTGGTGTG | -0.13 kcal/mol |
| GGTTACACGTGTGGAT | 0.28 kcal/mol |
| ATGGTCACGTGTTGTT | 0.12 kcal/mol |
| TTGAGCACGTGCCGTA | -0.04 kcal/mol |
| AATATCACGTGTTTTA | 0.07 kcal/mol |
| CGATTCACGTGGGGTA | 0.13 kcal/mol |
| TAGGACACGTGGATGT | -0.12 kcal/mol |
| TGTACCACGTGGTGGT | -0.15 kcal/mol |
| CGTGACACGTGGTTGG | 0.04 kcal/mol |
| AGGTACACGTGATGAA | 0.24 kcal/mol |
| GGTTTCACGTGTGGTT | 0.38 kcal/mol |
| TAGGTCACGTGTGTAG | 0.1 kcal/mol |
| GTTATCACGTGAGAGG | 0.26 kcal/mol |
| GTAGTCACGTGCAGTA | 0.11 kcal/mol |
| CTTATCACGTGAATGT | 0.28 kcal/mol |

| Sequence | relative binding free energy |
| --- | --- |
| TCTGTCACGTGTTTTC | 0.06 kcal/mol |
| GTTCCCACGTGTGGGT | 0.02 kcal/mol |
| TTGTGCACGTGATATC | 0.03 kcal/mol |
| GAACGCACGTGGGTAT | -0.07 kcal/mol |
| GGTGCCACGTGGGGCT | -0.18 kcal/mol |
| TTTAGCACGTGCCTGT | -0.13 kcal/mol |
| GTGGTCACGTGAGCTA | 0.32 kcal/mol |
| TGTGACACGTGAGAAG | 0.05 kcal/mol |
| TTTCGCACGTGGGGTC | -0.29 kcal/mol |
| CGTGTCACGTGAAGAG | 0.22 kcal/mol |
| GACAGCACGTGGCGGG | -0.17 kcal/mol |
| CTGAGCACGTGTATTG | 0.01 kcal/mol |
| ATCGTCACGTGGGTGC | 0.14 kcal/mol |
| TGGGACACGTGCTCGG | 0.03 kcal/mol |
| ATTTGCACGTGGCTAG | 0.01 kcal/mol |
| TGATGCACGTGCATGT | -0.16 kcal/mol |
| TGTAACACGTGGGAGT | -0.04 kcal/mol |
| TGGGTCACGTGCGAGT | 0.05 kcal/mol |
| TTGAGCACGTGGTGGG | -0.16 kcal/mol |
| CTAAGCACGTGTTAGT | -0.09 kcal/mol |
| GATGTCACGTGGTAGT | 0.12 kcal/mol |
| CGGTTCACGTGGGTGC | 0.14 kcal/mol |
| TGTCGCACGTGGGGTT | -0.26 kcal/mol |

| Sequence | relative binding free energy |
| --- | --- |
| AGACTCACGTGAGGAG | 0.48 kcal/mol |
| TTAGGCACGTGTGCTC | -0.13 kcal/mol |
| TTGTACACGTGTCAAT | 0.08 kcal/mol |
| GAATACACGTGATTGT | 0.18 kcal/mol |
| CTTGTCACGTGCGATG | 0.15 kcal/mol |
| TAGGTCACGTGAGATG | 0.28 kcal/mol |
| AATGACACGTGTCGGT | 0.04 kcal/mol |
| TCAGTCACGTGTATGG | 0.14 kcal/mol |
| TGTATCACGTGTTTGC | 0.09 kcal/mol |
| AGGGGCACGTGTCGGA | -0.21 kcal/mol |
| AACGGCACGTGGTATG | -0.08 kcal/mol |
| ATGAGCACGTGATATT | -0.08 kcal/mol |
| TAATTCACGTGACGGT | 0.31 kcal/mol |
| TAAGGCACGTGGTTAT | -0.11 kcal/mol |
| ACAGGCACGTGGCGGG | -0.27 kcal/mol |
| TTGTGCACGTGGCAGT | -0.01 kcal/mol |
| TGTTGCACGTGTACTG | -0.04 kcal/mol |
| ATTCTCACGTGTTTAG | 0.25 kcal/mol |
| GGGGGCACGTGCCTTG | -0.25 kcal/mol |
| AGGGTCACGTGCGATA | 0.04 kcal/mol |
| TGGATCACGTGGGCCT | 0.02 kcal/mol |
| GTGCTCACGTGGTGAC | 0.26 kcal/mol |
| TATGGCACGTGCTGGT | -0.15 kcal/mol |

| Sequence | relative binding free energy |
| --- | --- |
| CGGGACACGTGGGGTA | -0.28 kcal/mol |
| TGATACACGTGGATAT | 0 kcal/mol |
| TTGAGCACGTGAAGAT | 0.15 kcal/mol |
| GTGCGCACGTGAATGT | 0.31 kcal/mol |
| TGTCGCACGTGGTGTG | -0.02 kcal/mol |
| TTTCTCACGTGTTGGC | 0.3 kcal/mol |
| TGTAGCACGTGCGCTG | -0.13 kcal/mol |
| TGTTACACGTGAGTAG | 0.31 kcal/mol |
| GGGTACACGTGGAGTC | 0.07 kcal/mol |
| TGCTGCACGTGGAGAT | 0.03 kcal/mol |
| GTTTTCACGTGTAATG | 0.43 kcal/mol |
| TAAATCACGTGGTTTC | 0.07 kcal/mol |
| GCGGTCACGTGGTGGT | 0.11 kcal/mol |
| TGGTGCACGTGCAGTG | -0.02 kcal/mol |
| GTGACCACGTGGGTTG | -0.26 kcal/mol |
| TGTATCACGTGAGATT | 0.25 kcal/mol |
| GGCTGCACGTGATGGC | 0.29 kcal/mol |
| GCGATCACGTGTGTGG | 0.14 kcal/mol |
| TAGTTCACGTGATGTG | 0.3 kcal/mol |
| GGTTACACGTGGCAGG | -0.06 kcal/mol |
| CCTGTCACGTGGGGAG | -0.12 kcal/mol |
| CCTGTCACGTGTGGTG | 0.03 kcal/mol |
| AGGGACACGTGTTGGG | 0.07 kcal/mol |
